# ± gives the standard deviation of the averaged measurements. This is one part of the list.
# System: PfAP2-I AP2 domain 3 (GST-tagged)
# Test: gcPBM binding intensity (ln(normalized median fluorescence intensity)); higher = stronger DNA binding
# Procedure, shortened: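 In this array assay, P. falciparum DNA-binding domains with a GST tag, expressed in E. coli, were applied for 1 h to primer-extended double-stranded 36-bp intergenic genomic probes and negative controls on an Agilent 4 × 180k array. Bound protein was visualised with Alexa488 anti-GST antibody at 488 nm. Binding intensity is the highest Masliner-normalised natural-log median intensity across replicate spots of either probe orientation.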
row,Sequence,gcPBM binding intensity (ln)
1,TTTTTATTTAAAAGTAGTACAAGGGTTATTATTAAC [XGTACX_site1555],8.13 ± 0.43
2,GAAATCTAATTTATTACACACATTTGAAAAAAATTC [CACACA_site6640],7.74 ± 0.44
3,AATTTTTTGAATAATTGTACATATTTGGTTAAATAT [XGTACX_site3612],7.64 ± 0.29
4,TTACTAAGAAGGATTTATTTTATAAAAATATTTATT [XGTACX_negctrl_site549],7.25 ± 0.46
5,TTATATTTTTTTGAGTGTACTTTTTGTGTAAAATTC [XGTACX_site2155],7.89 ± 0.43
6,ACCCATTTTTGTTGTTCTATATATTCGTGAATCATT [CACACA_negctrl_site614],8.13 ± 0.44
7,ATATTTTATACTTGCACACAAAATATATTAGAATGT [CACACA_site1985],8.77 ± 0.3
8,ATATTGCTTATTTGATGTACGAATACACTAGTATTA [XGTACX_site4536],7.79 ± 0.64
9,ATACTAAATGAACACACACACATATAGATTTATAAC [CACACA_site6200],7.88 ± 0.47
10,TATCTGTATATGTGTACACATATTCTTAACTCACGC [CACACA_site4255],8.12 ± 0.54
11,GAACAACAACAAAAAAAAAAAAAAAAAAAAAAAAAA [CACACA_negctrl_site199],8.12 ± 0.83
12,TAAATAAATATATGTACACACACAAATATATACATA [CACACA_site8577],7.83 ± 0.25
13,TATATGATATAATATACACACATACATATATATATA [CACACA_site8066],8.91 ± 0.057
14,ATTTTATGAAATGTTGCACACAAAAAACAACATGTT [CACACA_site8408],8.95 ± 0.092
15,ATATTTAATACAAATACACACACAAATATATACATA [CACACA_site9248],7.87 ± 0.63
16,ATGGGAAAAACATTCCGTACATACATACACATATAT [XGTACX_site8263],7.76 ± 0.59
17,CTGAATTTTTATAACTGTACATATTTGATATAAAAA [XGTACX_site183],7.75 ± 0.33
18,AATACATACATATATACATGCATACATATAAATATA [TGCATGCA_site674],8.29 ± 0.78
19,GAACAAAAAAAAAATTGTACACAATTTTTTAAAATT [XGTACX_site4455],7.67 ± 0.32

row,Sequence,gcPBM binding intensity (ln)
1,ATGATTTATTATTATACACACAAAAAAAAAAAAGGA [CACACA_site264],7.92 ± 0.46
2,AAACAAAAAAAATAAGCACACATATATATATATATA [CACACA_site8173],9.55 ± 0.54
3,GCTTATAAGATATGCACACACAACACTTACAAAAAA [CACACA_site817],8.74 ± 0.2
4,AAAATTATATGTAATTGTACGGAATTATATACGCAA [XGTACX_site2048],7.87 ± 0.56
5,TTTTTTAAAAATATTATCATCGTAACAAGAAATCGA [CACACA_negctrl_site1111],7.74 ± 0.4
6,TCCTGTGGTTATATAACACACATTATTGCTTATAAG [CACACA_site6823],8.19 ± 0.4
7,ATATATGGGTAGTATACACACTGTATATTTAGGAAT [CACACA_site7357],7.87 ± 0.65
8,GTATGAAAAAAATATGCATGCTAAATAATAAATGTT [TGCATGCA_site352],7.95 ± 0.64
9,TATATATATATACATACATATAAAGTTACATAAACA [CACACA_negctrl_site432],9.31 ± 0.39
10,TAGATTTTTTTACATTGTACATATTTTTTCTTATAG [XGTACX_site293],7.73 ± 0.55
11,GAACAAACAAAGAAAGAACACACATACACAATATAC [CACACA_site8918],8.31 ± 0.32
12,TTTTTTAAAATATAAAATATGTACAAATATGTTGAA [GTGCAC_negctrl_site379],7.97 ± 0.3
13,TATAAAATATAAATTTGTACATATAAAATATTTTAT [XGTACX_site7462],7.72 ± 0.23
14,TAATAGTTATAAAATACACACCAGGCATGATAAATG [CACACA_site4335],7.62 ± 0.64
15,AATATTTTAAAAAAATGTACTTTTAACCCTTATTGG [XGTACX_site3490],7.65 ± 0.16
16,CATATTATTTATATTTGTACACAGCGATATGAAATA [XGTACX_site7717],7.95 ± 0.4
17,TATATATATATATATGTGCACATATATATGATATTA,9.79 ± 0.28
18,CTTACATAAAATATCACACACATAAAAAAACAATAT [CACACA_site1901],8.02 ± 0.7
19,CACCAATTCATATGCACACACATCTGCATATTATAG [CACACA_site6925],9.21 ± 0.26

row,Sequence,gcPBM binding intensity (ln)
1,ATATCGCACGTTTGAAGTACATAAAAACGATTAATA [XGTACX_site7684],8.78 ± 0.042
2,TTATATAAATATAAGGTGCTGGGGTTTATTACATAT [GTGCAC_site9909],8.07 ± 0.54
3,ATTTCGTAATTTATATCACACACATATATATATAAT [CACACA_site9021],8.06 ± 0.53
4,ATCATTTTTATAAATTGTACAAATATTTTTTATACA [XGTACX_site7551],7.95 ± 0.37
5,AATAAATAAATATATTGTACATATATATATATATAT [XGTACX_site8627],9.41 ± 0.67
6,CGAAAGGAAATATAACGTACATAAGATTATATTCAC [XGTACX_site3868],7.74 ± 0.67
7,ATGCATACACTTATATGTACACATTTACATATTATT [XGTACX_site2841],8.02 ± 0.44
8,TATTAAAAGAAAAAAAAAAAAAAATTAATACATATA [XGTACX_negctrl_site582],7.24 ± 0.3
9,ATGAACAAGGGGCACACACACATTATGACTAATTTA [CACACA_site3204],8.22 ± 0.38
10,TATTAATATATAGTAGTGCAATAAAGATATACTGAA,10.9 ± 0.58
11,AACATACTCACGAACATACACACGGACATACATACG [CACACA_site603],8.27 ± 0.4
12,ATATGCTATTAATTATGTACATATATATATATATAT [XGTACX_site4901],9.24 ± 0.88
13,GTACATTATATATATACACACATACATAATAAAGAA [CACACA_site5528],8.12 ± 0.23
14,ACTACGTGTCAAAAATATTAATTACAAATGAATAAA [GTGCAC_negctrl_site248],7.54 ± 0.32
15,GGACTATACAGTTATACACACACATATATATATAAT [CACACA_site7991],8.02 ± 0.57
16,TACATATTTACTATCACACACACGATATATATAAAT [CACACA_site1242],8.04 ± 0.24
17,TACTTAAAAAAAAAAAAAATAAATATTATGTATTAT [CACACA_negctrl_site138],7.23 ± 0.47
18,ATACGAAAAAATAGACGTACTATGAAATAATAATTT [XGTACX_site8387],7.76 ± 0.6
19,TTTAGTGAGTTTGTTGTGCACTGAAAAAATTACAAT,11.1 ± 0.18

# — the supplement of paper PMC11417369
